# In the supplement of paper PMC7238544:
# Structures can show the parent of a compound that is named as a salt. ± gives the standard deviation of the averaged measurements. The list shows a part of the results.
# Test system: hAMSC donor 2
# Test: Hoechst total cell count ratio vs vehicle control; hAMSC are human adipose-derived mesenchymal stem cells given an EGFP-luciferase plasmid by lipofection; higher = more cells (less toxicity)
# Settings: priming compound concentration 100 µM
# 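Also: compound added 30 min before Lipofectamine 3000 lipoplex delivery, triplicate-well means expressed against DMSO vehicle control wells of the same 96-well plate.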
row,SMILES,Hoechst total cell count ratio
1,CC(C)(C)NCC(O)c1cc(O)cc(O)c1 (centres undefined) [Terbutaline sulfate],1.61 ± 0.1
2,CC1=C(/C=C/C(C)=C/C=C/C(C)=C\C(=O)O)C(C)(C)CCC1 [Isotretinoin],1.22 ± 0.13
3,CC[C@H](C)C(=O)O[C@H]1C[C@@H](C)C=C2C=C[C@H](C)[C@H](CC[C@@H]3C[C@@H](O)CC(=O)O3)[C@H]21 [Lovastatin],0.964 ± 0.073
4,CN1CCC(=C2c3ccccc3C=Cc3ccccc32)CC1 [Cyproheptadine hydrochloride],0.254 ± 0.063
5,C=CCc1ccc(O)c(-c2ccc(O)c(CC=C)c2)c1 [Honokiol],0.126 ± 0.046
6,CC(C)Oc1ccc2c(=O)c(-c3ccccc3)coc2c1 [Ipriflavone],1.37 ± 0.17
7,CC[C@@]1(O)C(=O)OCc2c1cc1n(c2=O)Cc2cc3c(CN(C)C)c(O)ccc3nc2-1 [Topotecan hydrochloride],0.4 ± 0.049
8,CN(C)CCCSc1ccccc1NC(=O)/C=C/c1ccccc1 [Cinanserin],1.12 ± 0.092
9,CC(=O)OCC(CCn1cnc2cnc(N)nc21)COC(C)=O [Famciclovir],1.13 ± 0.18
10,C[C@](N)(Cc1ccc(O)cc1)C(=O)O [alpha-Methyl-L-tyrosine],1.48 ± 0.039
11,C=CC1=C(C(=O)O)N2C(=O)[C@@H](NC(=O)/C(=N\O)c3csc(N)n3)[C@H]2SC1 [Cefdinir],0.614 ± 0.034
12,COc1ccc(CC(C)NCC(O)c2ccc(O)c(NC=O)c2)cc1 (centres undefined) [Formoterol fumarate dihydrate],1.2 ± 0.14
13,Cc1nc(=O)c2cc(CN(C)c3ccc(C(=O)N[C@@H](CCC(=O)O)C(=O)O)s3)ccc2[nH]1 [Raltitrexed],1.17 ± 0.035
14,CC(C)[N+](C)(CCOC(=O)C1c2ccccc2Oc2ccccc21)C(C)C [Propantheline bromide],1.4 ± 0.22
15,COCCOC(=O)C1=C(C)NC(C)=C(C(=O)OC(C)C)C1c1cccc([N+](=O)[O-])c1 (centres undefined) [Nimodipine],0.914 ± 0.15
16,CN(C)CCOC(c1ccc(Cl)cc1)c1ccccn1 (centres undefined) [Carbinoxamine maleate],1.77 ± 0.27
17,CC(C)c1ccc2c(c1)c(SC(C)(C)C)c(CC(C)(C)C(=O)O)n2Cc1ccc(Cl)cc1,1.3 ± 0.089
18,CCN1CCN(c2cc3c(cc2F)c(=O)c(C(=O)O)cn3C2CC2)CC1 [Enrofloxacin],1.19 ± 0.12
19,CN[C@H]1CC[C@@H](c2ccc(Cl)c(Cl)c2)c2ccccc21 [Sertraline hydrochloride],0.163 ± 0.059
20,CC(=O)S[C@@H]1CC2=CC(=O)CC[C@]2(C)[C@H]2CC[C@@]3(C)[C@@H](CC[C@@]34CCC(=O)O4)[C@H]12 [Spironolactone],0.559 ± 0.044

row,SMILES,Hoechst total cell count ratio
1,O=C(CCCN1CCC(O)(c2ccc(Cl)cc2)CC1)c1ccc(F)cc1 [Haloperidol hydrochloride],0.929 ± 0.072
2,CCCCN1CCCC1CNC(=O)c1cc(C#N)c2ccccc2c1OC (centres undefined) [Nafadotride],1.01 ± 0.064
3,O=C(CCNNC(=O)c1ccncc1)NCc1ccccc1 [Nialamide],1.3 ± 0.072
4,NS(=O)(=O)c1cc(C(=O)O)c(NCc2ccco2)cc1Cl [Furosemide],1.05 ± 0.11
5,CCN(CC)CC(=O)Nc1c(C)cccc1C [Lidocaine],1.25 ± 0.14
6,O=C1CC2(CCCC2)CC(=O)N1CCCCN1CCN(c2ncccn2)CC1 [Buspirone hydrochloride],1.78 ± 0.15
7,Cc1cccc(CN2CCN(C(c3ccccc3)c3ccc(Cl)cc3)CC2)c1 (centres undefined) [Meclizine hydrochloride],1.11 ± 0.12
8,C[C@@](Cc1ccc(O)c(O)c1)(NN)C(=O)O [Carbidopa],1.14 ± 0.59
9,C#C[C@]1(O)CC[C@H]2[C@@H]3CCc4cc(OC)ccc4[C@H]3CC[C@@]21C [Mestranol],0.982 ± 0.026
10,CC1(C)S[C@@H]2[C@H](NC(=O)Cc3ccccc3)C(=O)N2[C@H]1C(=O)O [Penicillin G potassium],1.17 ± 0.28
11,O=C1[C@H](CC[C@H](O)c2ccc(F)cc2)[C@@H](c2ccc(O)cc2)N1c1ccc(F)cc1 [Ezetimibe],0.473 ± 0.18
12,Nc1nc2c(ncn2COC(CO)CO)c(=O)[nH]1 [Ganciclovir],1.44 ± 0.17
13,Nc1c2c(nc3ccccc13)CCCC2 [Tacrine hydrochloride],1.03 ± 0.12
14,CCN1CCC[C@H]1CNC(=O)c1cc(S(N)(=O)=O)ccc1OC [Levosulpiride],0.859 ± 0.022
15,Cn1ccnc1S [Methimazole],1.52 ± 0.23
16,COc1cc([C@@H]2c3cc4c(cc3[C@@H](O[C@@H]3O[C@@H]5CO[C@@H](C)O[C@H]5[C@H](O)[C@H]3O)[C@H]3COC(=O)[C@H]23)OCO4)cc(OC)c1O [Etoposide],0.42 ± 0.13
17,OCc1cccnc1 [3-Pyridinemethanol],1.19 ± 0.13
18,C[C@H]1C[C@@H]2[C@H]([C@@H](O)C[C@@]3(C)[C@H]2CC[C@]3(O)C(=O)CO)[C@@]2(C)C=CC(=O)C=C12 [Methylprednisolone],1.52 ± 0.32
19,COC(=O)[C@H](c1ccccc1Cl)N1CCc2sccc2C1 [Clopidogrel],1.87 ± 0.066
